Molecules are shown by their SMILES. Screen size: about 45,000 compounds; about 65 (0.1%) were called active. The call rests on the fitted dose curve; in most records, active means well fitted activation curve with a large enough effect; inconclusive means small, poorly fitted or top-dose-only effect; inactive means no such curve, though single readings can be large or run the other way. Some of the results follow.

Chain of UniProt P54803 (P54803 whole entry, looked up): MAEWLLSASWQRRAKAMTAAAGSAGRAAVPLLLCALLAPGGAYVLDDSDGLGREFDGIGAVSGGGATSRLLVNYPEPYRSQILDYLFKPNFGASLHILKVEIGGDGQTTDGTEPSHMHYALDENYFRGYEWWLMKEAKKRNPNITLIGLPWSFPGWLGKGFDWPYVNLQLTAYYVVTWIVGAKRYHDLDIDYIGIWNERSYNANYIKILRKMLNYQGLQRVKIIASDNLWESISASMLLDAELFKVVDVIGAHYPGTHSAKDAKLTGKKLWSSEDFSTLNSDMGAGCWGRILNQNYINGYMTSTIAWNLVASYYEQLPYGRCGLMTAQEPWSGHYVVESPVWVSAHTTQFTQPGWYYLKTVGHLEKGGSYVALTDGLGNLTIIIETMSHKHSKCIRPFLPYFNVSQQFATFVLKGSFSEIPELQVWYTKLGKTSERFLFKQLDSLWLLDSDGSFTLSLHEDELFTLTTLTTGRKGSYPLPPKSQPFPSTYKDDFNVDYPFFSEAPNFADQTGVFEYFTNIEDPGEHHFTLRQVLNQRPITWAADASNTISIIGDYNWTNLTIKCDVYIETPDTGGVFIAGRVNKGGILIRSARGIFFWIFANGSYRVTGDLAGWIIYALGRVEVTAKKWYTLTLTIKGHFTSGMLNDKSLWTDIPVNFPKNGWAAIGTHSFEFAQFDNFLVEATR

The target in the experiment is Galactocerebrosidase (Homo sapiens) (UniProt P54803). The experiment is described as follows: A Novel Cell-Based Assay to Identify Small Molecules for B -Galactocerebrosidase. Further: 0% is about no effect; nearly all actives have a fitted effect of over 65% in size. To be noted: 145M-Twi-hGALC-G270D cells (Twitcher mouse brain line with human GALC G270D), HMU-beta-Gal fluorescence, 48 h; series mostly up to 57.5 µM; activation: at the top concentration. The method in brief:
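Fluorogenic HMU-b-Gal hydrolysis (0.1 mM final, pH 5.2 citrate-phosphate with 1 mg/mL sodium taurocholate; carbonate stop buffer) measures mutant GALC activity after compound treatment of live 145M-Twi Twitcher brain cells stably carrying human GALC-G270D, with wild-type GALC line alongside; activation sought.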
`CC(C)NCC(O)COc1ccc(COCCOC(C)C)cc1` (stereo unspecified): the “activation” value is inactive: -15.3%.

For the compound `COc1ccc(OC)c(-c2csc(-c3c(N)c(C(=O)c4ccccc4)n4ccccc34)n2)c1`, the “activation” value is inactive: -15.5%. In the case of `O=C(Cn1ncn2nc(-c3cccs3)cc2c1=O)NCc1cccc(Br)c1`, the “activation” value is inactive: -0.319%.

Turning to `COC(=O)c1cccnc1-n1c(=O)c2cccnc2n(CC(=O)Nc2c(C)cc(C)cc2C)c1=O`, the “activation” value is inactive: -14.6%. For the compound `Cc1ccc(NC(=O)CN2C(=O)COc3ccc(S(=O)(=O)N4CCCCC4)cc32)cc1N(C)C`, the “activation” value was inactive: -8.25%. Then `COc1ccc(-n2c(=O)c3c(c4cc(OC)ccc4n3C)n(Cc3cc(C)ccc3C)c2=O)cc1`, with inactive: 22.7%. Consider `CCOc1ccc(C(=O)c2cn(CC(=O)Nc3ccc4c(c3)OCO4)c3ccc(OCC)cc3c2=O)cc1`, for which the “activation” value was inactive: -7.86%. For the compound `CCOc1ccc(S(=O)(=O)N(CC(=O)Nc2ccc3c(c2)OCO3)c2ccccc2)cc1`, the “activation” value was inactive: -10.1%. As to `Cc1ccc(NC(=O)Cn2c(=O)n(-c3ccccc3)c(=O)c3ccc(C(=O)NCc4ccc5c(c4)OCO5)cc32)c(C)c1`, the “activation” value was inactive: -12.7%. As for `CC(C)CN(CCNC(=O)CN1C(=O)CSc2ccc(S(=O)(=O)N3CCOCC3)cc21)CC(C)C`, the “activation” value is inactive: -5.71%. For `Cc1cccc(CNC(=O)c2ccc(NC(=O)N3CC(C)Sc4ccccc43)cc2)c1` (stereo unspecified), the “activation” value is inactive: -7.88%. As for `Nc1c(C(=O)c2ccc(F)cc2)sc(Nc2ccccc2F)c1S(=O)(=O)c1ccc(Br)cc1`, the “activation” value was inactive: -26.6%. As to `CCOC(=O)c1cccc(NC(=O)c2ccc3nc(Cc4ccccc4)oc3c2)c1`, the “activation” value was inactive: -12.8%. For the compound `O=C(/C=C\c1ccc2c(c1)OCO2)NC1CC(=O)N(c2cccc(F)c2)C1` (stereo unspecified), the “activation” value was inactive: -10.5%.

`O=C(Nc1c(-c2ccc(F)cc2)nc2ccccn12)c1ccccc1F`: the “activation” value is inactive: -10.9%.

For `COc1ccccc1CNC(=O)c1ccc2c(c1)CCN2S(=O)(=O)c1ccccc1`, the “activation” value is inactive: -27.6%. In the case of `COc1cccc(/C=C/c2onc(C)c2S(=O)(=O)N2CCC(C(=O)N3CCC(C)CC3)CC2)c1`, the “activation” value was inactive: -13.8%.

In the case of `Cc1cc2ccccc2n1-c1ccc(C(=O)N2CCC(C(=O)NCc3ccccc3Cl)CC2)s1`, the “activation” value was inactive: -17.6%. Turning to `COc1ccccc1N1CCN(C(=O)CSc2n[nH]c(-c3ccccc3)n2)CC1`, the “activation” value was inactive: 3.6%. `Cc1ccc(-n2c3c(c(=O)[nH]c2=O)C(NC(=O)c2ccccc2C)(C(F)(F)F)C(=O)N3)cc1` (stereo unspecified): the “activation” value was inactive: -11.9%.

For the compound `Cc1ccccc1NCc1cccn1-c1nnc(N2CCC(C)CC2)s1`, the “activation” value was inactive: -20%.

In the case of `COc1ccc(-c2cn3c(n2)sc2cc(C(=O)Nc4cccc(OC)c4)ccc23)cc1`, the “activation” value was inactive: -12.4%.

With `COC(=O)c1scc(-c2ccc(C)cc2)c1S(=O)(=O)Nc1ccc(N(C)C)cc1`, the “activation” value was inactive: 13.7%. On to `CCOC(=O)C1=C(CN2CCN(c3ccccc3F)CC2)NC(=O)NC1c1ccc(Cl)cc1` (stereo unspecified), for which the “activation” value is inactive: 1.39%.

As for `CC(CNC(=O)Cc1ccc(NC(=O)N2CCSc3ncccc32)cc1)c1ccccc1` (stereo unspecified), the “activation” value is inactive: -23.4%. For the compound `Cn1c(=O)oc2cc(S(=O)(=O)Nc3ccccc3O)ccc21`, the “activation” value was inactive: -20.5%. The value for `Cc1ccc(CNC(=O)C2CCN(S(=O)(=O)c3cc(-c4noc(C)n4)ccc3C)CC2)cc1` was inactive: -4.49%; that for `CCOc1ccc(NC(=O)CC2C(=O)N(c3ccccc3)C(=O)N2Cc2ccc3c(c2)OCO3)cc1` (stereo unspecified) was inactive: -15.3%. As for `Cc1c(Cl)cccc1-n1nc(C)c2c(C(=O)NCc3ccccc3)cc(C3CC3)nc21`, the “activation” value was inactive: -14.6%. Then `Cc1nc2c(-c3ccccc3)c(C)nn2c(C)c1CCC(=O)NCc1ccc(F)cc1`, with inactive: 6.23%; and `CCOc1ccc(CCNC(=O)c2cc3c(s2)-c2ccccc2OC3)cc1OCC`, with inactive: -10.1%. With `Cc1ccc(-c2cc(NC(=O)COc3ccc(Cl)cc3C)on2)cc1`, the “activation” value was inactive: -19.4%.

Take `COc1ccc(-c2cc(C(F)(F)F)nc(SCC(=O)N3CCC(C)CC3)n2)cc1`: the “activation” value is inactive: -8.14%. For the compound `COc1ccc(CCNc2nccn(-c3ccc(C)c(C)c3)c2=O)cc1OC`, the “activation” value was inactive: -9.03%. For the compound `Cc1cc(C)cc(N2CC(c3nc(-c4cccc(Cl)c4)no3)CC2=O)c1` (stereo unspecified), the “activation” value is inactive: -9.08%. As for `Cc1ccc(CNCc2ccccc2)s1`, the “activation” value is inactive: 2.97%. Take `CCc1ccc(-n2c(=O)c3c4c(sc3n(Cc3ccc(C)cc3)c2=O)CCC4)cc1`: the “activation” value is inactive: 13.7%.

With `CC(=O)N1CCc2cc(S(=O)(=O)NC(Cc3ccccc3)C(=O)Nc3cccc(C)c3)ccc21` (stereo unspecified), the “activation” value was inactive: 3.56%. The value for `Oc1c(C(c2ccc(F)cc2)N2CCOCC2)sc2nc(-c3ccco3)nn12` (stereo unspecified) was inactive: -14%; that for `O=C(Cn1ncc2c([nH]c3ccccc32)c1=O)Nc1cccc(C(F)(F)F)c1` was inactive: 4.05%; that for `O=C1C(Nc2ccccc2)=CC(c2ccc(Br)cc2)N1c1ccccc1` (stereo unspecified) was inactive: -17.4%. For `Cc1ccccc1CN1c2ccccc2S(=O)(=O)c2ccccc21`, the “activation” value is inactive: -4.39%. Then `COc1ccccc1NC(=O)CN(C)S(=O)(=O)c1ccc2c(c1)c(=O)n(C)c(=O)n2C`, with inactive: -11.1%; and `COc1ccc(C)cc1NC(=O)NCc1cccn1Cc1ccccc1`, with inactive: -12.5%; and `O=C(NCc1ccccc1)c1ccc2nc(CCc3ccccc3)oc2c1`, with inactive: -9.05%.

Turning to `Cc1ccc(CN2CCC(CNC(=O)Nc3cccc(Cl)c3C)C2)cc1` (stereo unspecified), the “activation” value was inactive: -7.71%. On to `Cc1ccc(CCNC(=O)NCc2noc3ccccc23)cc1`, for which the “activation” value is inactive: -19.7%. As for `COc1ccc(N2CCN(C(CNC(=O)C(=O)NCCc3ccccc3)c3cccnc3)CC2)cc1` (stereo unspecified), the “activation” value is inactive: 0.337%.

With `COc1cc(OC)cc(-c2nc(-c3cccc(C)c3)no2)c1`, the “activation” value was inactive: -19.1%. The value for `CC1CCCN(S(=O)(=O)c2ccc3[nH]c(=O)cc(C(=O)NCCc4ccc(Cl)cc4)c3c2)C1` (stereo unspecified) was inactive: -8.5%. As for `COc1ccc(C)cc1NC(=O)CSc1nc2ccccc2nc1N1CCOCC1`, the “activation” value is inactive: -11.6%. Take `O=C(COc1ccc(Cl)cc1)Nc1nnc2n1CCS2`: the “activation” value is inactive: -20.1%. Consider `CCOCCCN(C(=O)Nc1ccc(Cl)cc1)C1CCN(C(C)=O)CC1`, for which the “activation” value is inactive: -4.22%. Consider `Cc1c(CNC2CCCCCC2)c(C(=O)O)c(C)n1Cc1ccc(F)cc1Cl`, for which the “activation” value was inactive: -16.2%.

For the compound `COc1ccc(S(=O)(=O)NCCc2csc3nc(-c4ccc(OC)c(OC)c4)nn23)cc1C`, the “activation” value was inactive: -3.23%. Turning to `O=C1CCSc2ccc(S(=O)(=O)Nc3ccc(Cl)c(C(F)(F)F)c3)cc2N1`, the “activation” value is inactive: -36.3%.

As to `CC(C)c1ccc(NC(=O)c2ccc(F)c(S(=O)(=O)N3CCCCCC3)c2)cc1`, the “activation” value was inactive: -7.63%. For `COc1ccc(CNC(=O)c2nc(Cn3nc(C)c(Br)c3C)no2)cc1OC`, the “activation” value was inactive: -22.3%. `COc1ccc(Cc2nc3ccc(C(=O)NCc4ccc(OC)cc4OC)cc3o2)cc1`: the “activation” value was inactive: 3.82%.

Turning to `COc1cc(NC(=O)c2sc3nc4n(c(=O)c3c2C)CCCCC4)cc(OC)c1OC`, the “activation” value is inactive: -3.87%.

On to `CCCCn1c(=O)c2oc3ccccc3c2n(CC(=O)Nc2cccc(Cl)c2C)c1=O`, for which the “activation” value is inactive: 4.38%. As for `CC(C)(C)c1ccc(C(=O)Nc2cc(-c3nc4ccccc4o3)ccc2Cl)cc1`, the “activation” value is inactive: -12.7%. With `CCc1ccccc1NC(=O)c1ccc2c(c1)CCN2S(C)(=O)=O`, the “activation” value is inactive: -4.35%.

Regarding `CCc1ccccc1NC(=O)C1CCN(S(=O)(=O)c2ccc3[nH]c(=O)ccc3c2)CC1`, the “activation” value was inactive: -18.7%. As to `Cc1ccc(C)c(NC(=O)CSc2nc(-c3ccccc3)cc(=O)[nH]2)c1`, the “activation” value is inactive: 0.522%.

As for `COc1ccc(CCNC(=O)C(=O)Nc2ccc(C)cc2)cc1OC`, the “activation” value is inactive: -11.2%.

`COc1ccc(N2CCN(S(=O)(=O)c3c(C)[nH]c(=O)[nH]c3=O)CC2)cc1`: the “activation” value was inactive: -10%. `CCN(C(=O)c1cc2cc3ccc(OC)cc3nc2o1)c1cccc(C)c1`: the “activation” value is inactive: -13.1%. Then `COc1ccc(-c2nc(C(=O)Nc3ccc(C(C)=O)cc3)nn2-c2cccc(Cl)c2)cc1`, with inactive: -10.3%; and `CC(=O)c1ccc(Oc2nc(C)nc3c2oc2ccccc23)cc1`, with inactive: -9.9%.

With `O=C(O)Cc1csc(-c2ccc(Cl)cc2)n1`, the “activation” value was inactive: -10.5%. Consider `Cc1ccc(-c2nc(C)c(CCNC(=O)c3cccs3)s2)cc1`, for which the “activation” value is inactive: -34.4%.

As for `CC(=O)c1cccc(NC(=O)C2CCN(S(=O)(=O)c3ccc4c(c3)CCCN4C(C)=O)CC2)c1`, the “activation” value is inactive: -13.9%. On to `CCc1cccc(NC(=O)c2cc3c(=O)n(Cc4ccccc4)ccc3nc2C)c1`, for which the “activation” value is inactive: -5.85%. In the case of `CC(C)c1ccc(NC(=O)C2CCN(C(=O)c3ccc(F)cc3)CC2)cc1`, the “activation” value was inactive: -16.8%. The value for `COc1cc(C(=O)Nc2ccccc2-c2nc(-c3ccccc3)no2)cc(OC)c1OC` was inactive: -21%. For `Cc1ccc(CN2CCCn3nc(C(=O)NCCc4ccccc4C)cc3C2=O)cc1`, the “activation” value is inactive: -17.2%.

For `Cc1c(C(=O)OCc2ccccc2)[nH]c2c1C(=O)CC(c1ccc(C(C)(C)C)cc1)C2` (stereo unspecified), the “activation” value was inactive: -15%. Regarding `Cc1ccc(-n2nc(C(=O)Nc3ccc(F)cc3F)c3c4ccccc4n(C)c3c2=O)cc1`, the “activation” value is inactive: -18.9%. On to `Cc1cccc(N(C)c2nc3ccc(C(=O)c4ccccc4)cc3n3c(C)nnc23)c1`, for which the “activation” value was inactive: 5.72%. In the case of `CCN(CC)c1nc2ccccc2nc1C(=O)Nc1ccc(C(C)=O)cc1`, the “activation” value is inactive: -15.7%. Then `Cc1ccc(C)c(NC(=O)CN(C)S(=O)(=O)c2cccc3nsnc23)c1`, with inactive: -10.6%; and `CCCCCOc1ccc(/C=C/C(=O)Nc2sc(C)c(C)c2C(=O)OCC)cc1OC`, with inactive: -4.61%. Then `COc1ccccc1NC(=O)Cn1cc(S(=O)(=O)Cc2ccccc2)c2ccccc21`, with inactive: -7.94%; and `CC(C)(C)C1CCc2c(sc(NC(=O)c3cc4ccccc4c(=O)o3)c2C(N)=O)C1` (stereo unspecified), with inactive: -8.48%. For the compound `Cc1ccc(C)c(NC(=O)Cn2c(=O)n(CCC(C)C)c(=O)c3cccnc32)c1`, the “activation” value is inactive: -8.18%. Take `COc1ccc(NC(=O)Cn2nnc(C(=O)NCc3cccs3)c2N)cc1`: the “activation” value was inactive: -1.74%. Take `Cc1ccc(NC(=O)CSc2nc(=O)n(Cc3cccnc3)c3c2CCC3)cc1F`: the “activation” value was inactive: -6.04%. For `CCN(CC)CCNC(=O)Cn1ncc2c3ccccc3n(Cc3ccc(Cl)cc3)c2c1=O`, the “activation” value was inactive: -10%. Take `Cc1ccc(-c2csc(-c3nc(-c4ccc(Br)s4)cs3)n2)cc1`: the “activation” value is inactive: -13.9%. On to `CCC(CC)C(=O)Nc1ccc2nc(SCC(=O)N3CCCC3)sc2c1`, for which the “activation” value was inactive: -9.19%.

Turning to `COc1ccc(Cc2nc3ccc(C(=O)NCc4ccccc4C)cc3o2)cc1`, the “activation” value is inactive: 3.82%. In the case of `COc1ccc(NC(=O)CN2C(=O)CC(c3ccc(C)c(C)c3)=Nc3ccccc32)cc1OC`, the “activation” value was inactive: -18.2%. `Cc1ccccc1C(=O)N1CC/C(=N\OS(=O)(=O)O)c2ccc(Cl)cc21`: the “activation” value was inactive: -23.5%. Then `Cc1ccccc1Oc1nc2ccccn2c(=O)c1/C=C(\C#N)c1nc2ccccc2[nH]1`, with inactive: -14.9%.

Turning to `CCc1cccc(C)c1NC(=O)c1cc(S(=O)(=O)N(Cc2ccc(C(=O)OC)cc2)Cc2ccc(OC)c(OC)c2)ccc1F`, the “activation” value was inactive: -8.76%.
